Reference: the supplement of paper PMC4967469
A lower IC50 marks a more sensitive line; a limit (>, <) means that the fit lies beyond the doses tested. AUC sums up the same curve from the lowest dose to the 256-fold higher top dose; it is 1 without any effect and falls as sensitivity rises. For some assays here: The top dose, if marked as inferred, was derived from the fitted curves, not read from the paper. For some assays here: Drugs with an entry number were screened twice under separate entries, and the two screens often disagree.

Columns and labels:
Assay in all cases: Viability of human cancer cell lines after 72 h of drug (GDSC screen)
NSC-87877 = compound: O=S(=O)(O)c1ccc2cc(N=Nc3cc(S(=O)(=O)O)c4cccnc4c3O)ccc2c1 [NSC-87877]; settings: top dose 16 µM; top dose inferred
Description: (§1)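 Human cancer cell lines in 384-well plates, medium with 10% serum, drug for 72 h over a 256-fold dose range (nine 2-fold or five 4-fold steps up to the top dose). Adherent lines were fixed and stained with the nucleic acid dye Syto60, suspension lines read with resazurin; signal relative to control wells, capped at 0 and 100%. One two-parameter sigmoid per drug and line, fitted in a mixed model over all curves with the slope shared within a line.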

Masitinib = compound: Cc1ccc(NC(=O)c2ccc(CN3CCN(C)CC3)cc2)cc1Nc1nc(-c2cccnc2)cs1 [Masitinib]; settings: top dose 20 µM
Description: as §1

BX-912 = compound: O=C(Nc1cccc(Nc2ncc(Br)c(NCCc3cnc[nH]3)n2)c1)N1CCCC1 [BX-912]; settings: top dose 10.24 µM; top dose inferred
Description: as §1

VNLG/124 = compound: CCCC(=O)OCc1ccc(OC(=O)/C=C(C)/C=C/C=C(C)/C=C/C2=C(C)CCCC2(C)C)cc1 [VNLG/124]; settings: top dose 5.12 µM; top dose inferred
Description: as §1

Elesclomol = compound: CN(NC(=O)CC(=O)NN(C)C(=S)c1ccccc1)C(=S)c1ccccc1 [Elesclomol]; settings: top dose 0.2 µM; top dose inferred
Description: as §1

OSI-930 = compound: O=C(Nc1ccc(OC(F)(F)F)cc1)c1sccc1NCc1ccnc2ccccc12 [OSI-930]; settings: top dose 10.24 µM
Description: as §1

HG-5-88-01 = compound: COc1cc(N2CCC(C(N)=O)CC2)ccc1Nc1nc(N)c(Cl)c(Nc2ccccc2S(=O)(=O)C(C)C)n1 [HG-5-88-01]; settings: top dose 10 µM; top dose inferred
Description: as §1

Bleomycin = compound: Cc1c(N)nc([C@H](CC(N)=O)NC[C@H](N)C(N)=O)nc1C(=O)N[C@H](C(=O)N[C@H](C)[C@@H](O)[C@H](C)C(=O)N[C@H](C(=O)NCCc1nc(-c2nc(C(=O)NCCC[S+](C)C)cs2)cs1)[C@@H](C)O)[C@@H](OC1OC(CO)C(O)C(O)C1OC1OC(CO)C(O)C(OC(N)=O)C1O)c1cnc[nH]1 [Bleomycin]
Description: as §1

LAQ824 = compound: O=C(/C=C/c1ccc(CN(CCO)CCc2c[nH]c3ccccc23)cc1)NO [LAQ824]; settings: top dose 1.024 µM; top dose inferred
Description: as §1

[1] = top dose 50 µM, screen: GDSC drug entry 1378, top dose inferred
[2] = top dose 64 µM, screen: GDSC drug entry 190

## A498 (kidney, adherent)
NSC-87877
  AUC: 0.976
  IC50: > 16 µM
Masitinib
  AUC: 0.865
  IC50: > 20 µM
BX-912
  AUC: 0.96
  IC50: > 10.2 µM
VNLG/124
  AUC: 0.977
  IC50: > 5.12 µM
Elesclomol
  AUC: 0.683
  IC50: 0.0528 µM
OSI-930
  AUC: 0.97
  IC50: > 10.2 µM
HG-5-88-01
  AUC: 0.956
  IC50: > 10 µM
Bleomycin; [1]
  AUC: 0.481
  IC50: 2.7 µM
Bleomycin; [2]
  AUC: 0.908
  IC50: > 64 µM
LAQ824
  AUC: 0.882
  IC50: > 1.02 µM

## 451Lu (melanoma, adherent)
NSC-87877
  AUC: 0.98
  IC50: > 16 µM
Masitinib
  AUC: 0.957
  IC50: > 20 µM
BX-912
  AUC: 0.98
  IC50: > 10.2 µM
VNLG/124
  AUC: 0.982
  IC50: > 5.12 µM
Elesclomol
  AUC: 0.748
  IC50: 0.0619 µM
OSI-930
  AUC: 0.975
  IC50: > 10.2 µM
HG-5-88-01
  AUC: 0.983
  IC50: > 10 µM
Bleomycin; [1]
  AUC: 0.953
  IC50: > 50 µM
Bleomycin; [2]
  AUC: 0.384
  IC50: 1.95 µM
LAQ824
  AUC: 0.34
  IC50: 0.0235 µM

## BT-474 (breast, adherent)
NSC-87877
  AUC: 0.968
  IC50: > 16 µM
Masitinib
  AUC: 0.848
  IC50: 17.7 µM
BX-912
  AUC: 0.964
  IC50: > 10.2 µM
VNLG/124
  AUC: 0.986
  IC50: > 5.12 µM
Elesclomol
  AUC: 0.56
  IC50: 0.0186 µM
OSI-930
  AUC: 0.927
  IC50: > 10.2 µM
HG-5-88-01
  AUC: 0.954
  IC50: > 10 µM
Bleomycin; [1]
  AUC: 0.96
  IC50: > 50 µM
Bleomycin; [2]
  AUC: 0.979
  IC50: > 64 µM
LAQ824
  AUC: 0.445
  IC50: 0.0446 µM

## ES-2 (ovary, adherent)
NSC-87877
  AUC: 0.982
  IC50: > 16 µM
Masitinib
  AUC: 0.9
  IC50: > 20 µM
BX-912
  AUC: 0.929
  IC50: > 10.2 µM
VNLG/124
  AUC: 0.991
  IC50: > 5.12 µM
Elesclomol
  AUC: 0.353
  IC50: 0.00519 µM
OSI-930
  AUC: 0.975
  IC50: > 10.2 µM
HG-5-88-01
  AUC: 0.99
  IC50: > 10 µM
Bleomycin; [1]
  AUC: 0.25
  IC50: 0.666 µM
Bleomycin; [2]
  AUC: 0.417
  IC50: 2.44 µM
LAQ824
  AUC: 0.672
  IC50: 0.18 µM

## HCT-15 (large intestine, adherent)
NSC-87877
  AUC: 0.854
  IC50: 13.9 µM
Masitinib
  AUC: 0.894
  IC50: > 20 µM
BX-912
  AUC: 0.986
  IC50: > 10.2 µM
VNLG/124
  AUC: 0.985
  IC50: > 5.12 µM
Elesclomol
  AUC: 0.343
  IC50: 0.00446 µM
OSI-930
  AUC: 0.957
  IC50: > 10.2 µM
HG-5-88-01
  AUC: 0.985
  IC50: > 10 µM
Bleomycin; [1]
  AUC: 0.585
  IC50: 5.41 µM
Bleomycin; [2]
  AUC: 0.123
  IC50: < 0.25 µM
LAQ824
  AUC: 0.777
  IC50: 0.438 µM

## HEC-1 (endometrium, adherent)
NSC-87877
  AUC: 0.989
  IC50: > 16 µM
Masitinib
  AUC: 0.98
  IC50: > 20 µM
BX-912
  AUC: 0.988
  IC50: > 10.2 µM
VNLG/124
  AUC: 0.989
  IC50: > 5.12 µM
Elesclomol
  AUC: 0.461
  IC50: 0.00983 µM
OSI-930
  AUC: 0.979
  IC50: > 10.2 µM
HG-5-88-01
  AUC: 0.923
  IC50: > 10 µM
Bleomycin; [1]
  AUC: 0.7
  IC50: 11.1 µM
Bleomycin; [2]
  AUC: 0.786
  IC50: 26.6 µM
LAQ824
  AUC: 0.45
  IC50: 0.0469 µM

## JIMT-1 (breast, adherent)
NSC-87877
  AUC: 0.974
  IC50: > 16 µM
Masitinib
  AUC: 0.976
  IC50: > 20 µM
BX-912
  AUC: 0.972
  IC50: > 10.2 µM
VNLG/124
  AUC: 0.98
  IC50: > 5.12 µM
Elesclomol
  AUC: 0.542
  IC50: 0.0164 µM
OSI-930
  AUC: 0.937
  IC50: > 10.2 µM
HG-5-88-01
  AUC: 0.956
  IC50: > 10 µM
Bleomycin; [1]
  AUC: 0.765
  IC50: 19.7 µM
Bleomycin; [2]
  AUC: 0.371
  IC50: 1.72 µM
LAQ824
  AUC: 0.468
  IC50: 0.0519 µM

## KGN (ovary, adherent)
NSC-87877
  AUC: 0.981
  IC50: > 16 µM
Masitinib
  AUC: 0.866
  IC50: > 20 µM
BX-912
  AUC: 0.66
  IC50: 1.96 µM
VNLG/124
  AUC: 0.945
  IC50: > 5.12 µM
Elesclomol
  AUC: 0.858
  IC50: > 0.2 µM
OSI-930
  AUC: 0.968
  IC50: > 10.2 µM
HG-5-88-01
  AUC: 0.945
  IC50: > 10 µM
Bleomycin; [1]
  AUC: 0.173
  IC50: 0.247 µM
Bleomycin; [2]
  AUC: 0.055
  IC50: < 0.25 µM
LAQ824
  AUC: 0.442
  IC50: 0.0429 µM

## EVSA-T (breast, adherent)
NSC-87877
  AUC: 0.985
  IC50: > 16 µM
Masitinib
  AUC: 0.885
  IC50: 16.4 µM
BX-912
  AUC: 0.983
  IC50: > 10.2 µM
VNLG/124
  AUC: 0.98
  IC50: > 5.12 µM
Elesclomol
  AUC: 0.682
  IC50: 0.037 µM
OSI-930
  AUC: 0.968
  IC50: > 10.2 µM
HG-5-88-01
  AUC: 0.991
  IC50: > 10 µM
Bleomycin; [1]
  AUC: 0.555
  IC50: 4.33 µM
Bleomycin; [2]
  AUC: 0.966
  IC50: > 64 µM
LAQ824
  AUC: 0.489
  IC50: 0.0601 µM

## LP-1 (myeloma, suspension)
NSC-87877
  AUC: 0.979
  IC50: > 16 µM
Masitinib
  AUC: 0.802
  IC50: 7.95 µM
BX-912
  AUC: 0.938
  IC50: > 10.2 µM
VNLG/124
  AUC: 0.945
  IC50: > 5.12 µM
Elesclomol
  AUC: 0.981
  IC50: > 0.2 µM
OSI-930
  AUC: 0.881
  IC50: 7.61 µM
HG-5-88-01
  AUC: 0.929
  IC50: > 10 µM
Bleomycin; [1]
  AUC: 0.992
  IC50: > 50 µM
Bleomycin; [2]
  AUC: 0.973
  IC50: > 64 µM
LAQ824
  AUC: 0.446
  IC50: 0.0467 µM

## SF295 (glioma, adherent)
NSC-87877
  AUC: 0.984
  IC50: > 16 µM
Masitinib
  AUC: 0.887
  IC50: > 20 µM
BX-912
  AUC: 0.965
  IC50: > 10.2 µM
VNLG/124
  AUC: 0.972
  IC50: > 5.12 µM
Elesclomol
  AUC: 0.499
  IC50: 0.0124 µM
OSI-930
  AUC: 0.965
  IC50: > 10.2 µM
HG-5-88-01
  AUC: 0.956
  IC50: > 10 µM
Bleomycin; [1]
  AUC: 0.451
  IC50: 2.27 µM
Bleomycin; [2]
  AUC: 0.112
  IC50: < 0.25 µM
LAQ824
  AUC: 0.446
  IC50: 0.0449 µM

## HCC2218 (breast, suspension)
NSC-87877
  AUC: 0.974
  IC50: > 16 µM
Masitinib
  AUC: 0.798
  IC50: 12.4 µM
BX-912
  AUC: 0.983
  IC50: > 10.2 µM
VNLG/124
  AUC: 0.968
  IC50: > 5.12 µM
Elesclomol
  AUC: 0.814
  IC50: 0.146 µM
OSI-930
  AUC: 0.921
  IC50: > 10.2 µM
HG-5-88-01
  AUC: 0.962
  IC50: > 10 µM
Bleomycin; [1]
  AUC: 0.958
  IC50: > 50 µM
Bleomycin; [2]
  AUC: 0.817
  IC50: 47.9 µM
LAQ824
  AUC: 0.317
  IC50: 0.0171 µM

## AGS (stomach, adherent)
NSC-87877
  AUC: 0.99
  IC50: > 16 µM
Masitinib
  AUC: 0.974
  IC50: > 20 µM
BX-912
  AUC: 0.964
  IC50: > 10.2 µM
VNLG/124
  AUC: 0.985
  IC50: > 5.12 µM
Elesclomol
  AUC: 0.062
  IC50: < 0.000781 µM
OSI-930
  AUC: 0.979
  IC50: > 10.2 µM
HG-5-88-01
  AUC: 0.929
  IC50: > 10 µM
Bleomycin; [1]
  AUC: 0.249
  IC50: 0.653 µM
Bleomycin; [2]
  AUC: 0.227
  IC50: 0.716 µM
LAQ824
  AUC: 0.317
  IC50: 0.0209 µM
